± gives the standard deviation of the averaged measurements. Some of the results follow.

The text below walks through data of the supplement of paper PMC11417369.

The test relates to PfAP2-LT AP2 domain (GST-tagged). Nature of the test: gcPBM binding intensity (ln(normalized median fluorescence intensity)); higher = stronger DNA binding. A digest of the protocol: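 Using an Agilent 4 × 180k array, primer-extended double-stranded 36-bp intergenic genomic probes and negative controls were exposed for 1 h to GST-fused P. falciparum DNA-binding domains expressed in E. coli. Binding was carried out in 1× PBS with 1% milk, 0.2 mg/ml BSA, 0.5% salmon testes DNA and 0.03% Triton X-100, and protein was detected with Alexa488 anti-GST antibody and a 488 nm scan. Binding intensity is the highest Masliner-normalised natural-log median intensity across replicate spots of either probe orientation.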
Take TCAAAAAAAATTTTAGTGCATATTTTAGTCAAAACA: the “gcPBM binding intensity (ln)” value came to 8.25 ± 0.44. With “TAATATTTCGTTAAGTTTTAAAGAAAAAAAAAAAAA [CACACA_negctrl_site1253]” the figure was 8.21 ± 0.53; with “ATTTAAATAATATGTACACACATTTAAAAAGTTATA [CACACA_site7347]”, 8.8 ± 0.31; with “TTTTTATAACATAAAAGTACATATTTTTAATTTAAT [XGTACX_site4394]”, 8.22 ± 0.44. With “ACACATATAATAGTTACATGCAAAAATACTTTTATT [TGCATGCA_site785]” the figure was 9.03 ± 0.47. Turning to “AAATTAAATGATAGAGCATGCGCTAAAAATGAGAAA [TGCATGCA_site937]”, the “gcPBM binding intensity (ln)” value came out at 9.05 ± 0.38. Then “TTTTTTTTATTATAAATATATATATTATAAAACGAA [XGTACX_negctrl_site189]”, with 7.99 ± 0.31; and “ACCCAAGAGAAAAGAGAAAGAAATATGTGTATATTG [GTGCAC_negctrl_site214]”, with 8.72 ± 0.47; and “ATATATATATATATAACATGCAAAGTTCAAAAAAAA [TGCATGCA_site943]”, with 8.96 ± 0.37.

For the sequence “TTATAGTAATAATAATGTACATTTATACACATATAT [XGTACX_site1965]”, the “gcPBM binding intensity (ln)” value was 8.94 ± 0.47.

Consider “AAAAAAAACAGACACACACACACATATACATACATA [CACACA_site2665]”, for which the “gcPBM binding intensity (ln)” value came out at 10.3 ± 0.17. As to “CATTATGTTGTAAATACACACATACCTATACATACA [CACACA_site6485]”, the “gcPBM binding intensity (ln)” value came to 9.07 ± 0.28. Then “TATTTATTTATATTTACACACATTCATATAAATTCA [CACACA_site7628]”, with 8.92 ± 0.44; and “TTTTTTTTTTTATCTGCACACCCTTTTGTGAATATT [CACACA_site789]”, with 9 ± 0.48; and “TCTGAGAATGATAAAAAAAAAAAAAATGAAAAATTA [CACACA_negctrl_site1478]”, with 8.24 ± 0.63. With “ATGCAATAAATATACACACACAAATCTATATTTATA [CACACA_site7179]” the figure was 9.46 ± 0.29; with “AAATAAAATAATTATAATACTAAAAATAATACATAA [GTGCAC_negctrl_site106]”, 8.65 ± 0.52.

Consider “AGTTCAAGGATTAAGACACACATATAAATAAATAAA [CACACA_site3662]”, for which the “gcPBM binding intensity (ln)” value amounted to 8.97 ± 0.61. Then “AATTATTATATATATATATATATATATTTATATATT [GTGCAC_negctrl_site387]”, with 9.05 ± 0.3. Consider “AAAAAATGGATGATCACACACTTCATAAAAGTTGCA [CACACA_site7109]”, for which the “gcPBM binding intensity (ln)” value was 8.86 ± 0.5.

For the sequence “TTTTTTTTGTAGAATTGTACTTATAAAATATATATA [XGTACX_site2116]”, the “gcPBM binding intensity (ln)” value was determined as 8.34 ± 0.45. For “AATGAGCGTTAAAAATGTACAGAAAATTGGAATTAT [XGTACX_site5743]”, the “gcPBM binding intensity (ln)” value turned out to be 8.91 ± 0.5.

For “AAAACTTTTAGTTATACACACAACATAGAAAATATT [CACACA_site6287]”, the “gcPBM binding intensity (ln)” value turned out to be 8.88 ± 0.33. Then “AACAATCAAATAGACACACACACACCCAAACATAAA [CACACA_site2757]”, with 10.1 ± 0.11; and “CTCCTACAAATATGTAGTACATTCAAAATAAATACC [XGTACX_site8207]”, with 8.56 ± 0.38; and “AAAAAAAAAAAATTCACACACATATAAAAAATTAAG [CACACA_site728]”, with 8.96 ± 0.47.

As for “GTAAAAAATATGAATACACACATAAAGGAAATAACA [CACACA_site1997]”, the “gcPBM binding intensity (ln)” value came to 9.32 ± 0.52. On to “AAAAAAAAAAAAAAAAGTACAGACGTCAAAAAAAAA [XGTACX_site4817]”, for which the “gcPBM binding intensity (ln)” value worked out at 8.77 ± 0.59.

Regarding “TTTTTTTTTTTTTTTTTTTTTTTTGGGTCCCATACA [CACACA_negctrl_site913]”, the “gcPBM binding intensity (ln)” value worked out at 8.07 ± 0.51.

In the case of “TAATATATAAGTATTTGTACATATTCATTCATCTAT [XGTACX_site2935]”, the “gcPBM binding intensity (ln)” value amounted to 8.84 ± 0.4. Then “TTTTAATTATATTATGCACACACAATTGGAAAAAAA [CACACA_site8598]”, with 8.85 ± 0.41. Then “AACAAATAAGATAAATGACTTAACAAAAGAAAAAAG [CACACA_negctrl_site1409]”, with 8.89 ± 0.45. Then “CTTATACATTATTAACGTACATGTTATATGAATAAC [XGTACX_site5752]”, with 8.69 ± 0.34; and “TTTTTTTTTTTTTTTTTTTTTTTTAAATGCTTCTAA [TGCATGCA_negctrl_site253]”, with 7.92 ± 0.22; and “GTCACATTGTTATATTGTACAAATGTCGTTCTTTTT [XGTACX_site8098]”, with 9.11 ± 0.41. “CACTATCAATATATATGTACATATATATATATATAT [XGTACX_site7854]”: the “gcPBM binding intensity (ln)” value was 9.71 ± 0.31. Then “TAAATATATAAATACACACAAACATACATATATATA [CACACA_site4050]”, with 9.24 ± 0.34; and “ATATAAAAATATATTAATATAAATAAATGGACATAT [XGTACX_negctrl_site488]”, with 8.88 ± 0.41; and “ACAACAATATGGAATTGTACATATATATATAAATAT [XGTACX_site3139]”, with 9.07 ± 0.47. On to “CTAGCAAATACATACACACACACACCCATACATATA [CACACA_site3496]”, for which the “gcPBM binding intensity (ln)” value came out at 9.95 ± 0.18. With “TATTTTTTTGTGTTTGGTACACACGTTATAAAAAAT [XGTACX_site2655]” the figure was 8.8 ± 0.36; with “TACACAAAACATAAAAGTACATAATAATAAAGTTAA [XGTACX_site8872]”, 8.96 ± 0.55. Then “GAACAAATAAAAAGGAGTACAATCAAATCTACGTAT [XGTACX_site343]”, with 9.07 ± 0.57. Consider “TAAATAAATACATACACACACATACATATATATATA [CACACA_site3129]”, for which the “gcPBM binding intensity (ln)” value is 9.62 ± 0.36.
